Measurements taken from the RNAGym collection of RNA variant scans (doi:10.1073/pnas.2313332121).
Variants at the floor of the assay are shown more often than the library holds them.

B1: TPR 5TU (parent)
chain: GGAUCUUCUCGAUCUAACAAAAAAGACAAAUCUGCCACAAAGCUUGAGAGCAUCUUCGGAUGCAGAGGCGGCAGCCUUCGGUGGCGCGAUAGCGCCAACGUUCUCAACUAUGACACGCAAAACGCGUGCUCCGUUGAAUGGAGUUUAUCAUG

Variants of: B1
Assay: polymerase ribozyme fitness, log enrichment relative to wild type (log ratio); higher = more active; in vitro selection for triplet polymerase activity
Procedure, shortened: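 PCR was used to build mutant libraries for each subunit of a heterodimeric triplet polymerase ribozyme, which were then transcribed. A single in vitro selection round, in triplicate, used a frozen incubation at −7 °C and recovered extended constructs by gel excision, streptavidin beads and RT-PCR. Fitness is the logarithm of genotype enrichment relative to wild-type enrichment, averaged over replicates with inverse-variance weights. The logarithm is base 2, and after Illumina sequencing only genotypes with ≥10 input reads and ≥1 read per output were kept.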

| Variant | polymerase ribozyme fitness (log ratio) |
| --- | --- |
| GGCUCUUCUCGAUCUAACAAAAAAAACAAAUCUGCCACAUAGCUUGAGAGCAUCUUCGGAUGCAGAGGCGACAGCCUUCGGUGGUGCGAUAGCGCUAACGUUCUCAACUAUGACACGCCAGACGCGUGCUCCGUUGAAUCGAGUUUAUCAUG | ≤ -4.2 |
| GGCUCUUCUCGAUCUAACAAAAAAGACAAAUCUGCCCCAAAGCUUGAGAGCAUCUUCGGAUGCAGAGGCGGCAGCCUUCGGAGGCGCCAUAGCGCCAACGUGCUCAACUAUGUUACGCAAAACGCGUGCUCCGUUGAAUGGAGUUUAUCAUG | ≤ -4.2 |
| GGCUCUUCUGGAUCUACCAAAAAAGAGAAAUCUGCCAAAAAGCUUGAGAGCAACUUCGGAUGCAGAGGCGGCAGCCUUCGGUGGCGCGAUAGCGCCAACGUUCUCAACUAUGACACGCAAAACGCGUGCUCCGUUCAAUGGAGUUUAUUAUG | ≤ -4.2 |
| GGCUCUUCUCGAUCUAACAAAAAAGACAAUUCUGCCACAAAGCUUGAGAGCAUCUUCGGAUGCAGAGGCGGCAGCCUUCGGUGGCGCGAUAGUGCCAACGUUCUCAACUAUGACGCGCAAAACGCGUGCUCCGUUGAAUGGAGUUUAUCAUG | ≤ -4.2 |
| GGCUCUUCUCGAUCUAACAAAAAAGACAAAUCUGCCACAAAGCUUGAGAGCAUCUUCGGAUGCAGAGGCGGCAGCCUUCGGUGGUGCGAUAGCGUCAACGUUCUCAACUAUGAUACGCAAAACGCGUGCUCCCUUGAAUGGAGUUUAUCAUG | ≤ -4.2 |
| GGCUCUUCUCGAUCUAACAAAAAAGACAAAUCUACCACAAAGCUUGAGAGCAUCUUCGGAUGCAGAGGCGGCAGCCUUCGGUGGCGCGAUAGCGCGAACGUUCUCAACUAUGUCACGCAAAACGCGUGCUCCGUUGAAUGGAGUUUAUCAUG | ≤ -4.2 |
| GGCUCUUCUCGAUCUAACAAAAAAGACACAUCUGCCACAAAGCUUGAGAGCAUCUUUGGAUGCAGAGGCGGCAGCCUUCGGUGGCGCGAUAGCGCCAACGGUCUCAACUAUGAUACGCAAAACGCGUGCUCCGUUGAAUGAAGUUAAUCAUG | ≤ -4.2 |
| GGCUCUUCUCGAUCUAACAAAAAAGACAAAUCUGCCACAAAGCUUGAGAGCAUGUUCCGAUGCAGAGGCGGCAGGCUUCGGUGGCGCGAUAGCACCAACGUUCUCAACUAUGACACGCAAAACGCGUGCUCCGUUGAAUGGAGUUUAUCAUG | ≤ -4.2 |
| GGCUCUUCUCGAUCUAACAAAAAAGACAAAUCUGCCACAAAGCUUGAGAGCAUCUUCCGAUGUAGAGGCGGCAGCCUUCGGUGGCGCGAUAGCGGCAACGUUCUCAACUAUGACACGCAAAACGCGUGCUCCGUUGAAUGGAGUUUAUCAUG | -1.68 |
| GGCUUUUCUCGAUCUAACAAAAAAGACAAAUCUGCCACAAAGCUUGAGAGCAACUUCGGAUGCAGAGGCAGCAGCCUUAGGUGGCGCGAUAGCACCAACAUUCUCAACUAUGACACGCAAAACGCGUGCUCCGUUGAAUGGAGUUUAUCAUG | ≤ -4.2 |
| GGCUCUUCUCGAUCUUACAAAAAAGACAAAUCUGCCACAAAGCUUGAGAGCAUAUUCGGAUGCAGAGGCGGCAGCCUUCGGUGGCGUGAUAGCGCCAACGUUCGCAACUAUGACACGCAAAACGCGUGCUCCGUUGAAUGCAGUUUAUCAUG | ≤ -4.2 |
| GGCUCUUCUCGAUCUAACAAAAAAGACGAAUCUGCCUCAAAGCUUGAGAGCUUCUUCGGAUGCAGAGGCGGCAGCCUUCGGUUGCGCGAUAGCGCCAACGUUCUCAACUAUGACACGCAAAACGCGUGCUCCGUUGAAUGGAGUUUAUCAUG | ≤ -4.2 |
| GGCUCUUGUCGAUCUAACAAAAAAGACAAAUCUGCCACAAAGCUUGAGAGCAUCUUCGGAUGCAGAGGCGGCAGCUUUCGGUGGCGAGAUAGCGCCAACGUUCUCUACUAUGACACGCAAAACGCGUGCUCCGUUGAAUGGAGUUUAUCAUG | ≤ -4.2 |
| GGCUCUUCUCGAUCUAACAAAAAAGACAAAUCUGCCACAAAGCUUGAGAGCAUCUUCGGAUGCAGAGGCGGCAGCCUUCGGUGGCGCGAUAGAGCCAUCGUUCUCAACUAUGACACGCAAAACGCGUGCUCCGUUGAAUGGAGUUUAUCAUG | -1.79 |
| GGCUCUUCUCGAUCUAACAACAAAGACAAAUCUGACACAAAGCUUGAGAGCAUCUUCGGAUGCAGAGGCGGCAGCCUUCGGUGGUGCGAUAGCGCCAACGUUCUCAACUAUGACACGCAAAACGUGUGCUCCGUUGAAUGGAGUUUAUCAUG | ≤ -4.2 |
| GGCUCGUCUCGAUCUAACAAAAAAGACAAAUCUGCCACAAAGCUUCAGAGCAUCUUCGGAUGCAGAGGCGGCAGACUUAGGUGGCACGAUAGCGCCAACGUUGUCAACUAUGACACGCAAAACGCUUGCUCCGUUGAAUGGAGUUUAUCAUG | ≤ -4.2 |
| GGCUCUUCUCGAUCUAACAAAAAAGACAAAUCUGCCACAAAGCUUGAGCGCAUCUUCGGGUGCAGAGGCGGCAGCCUUCGGUAGCGCGAUAGCGCCAACGUUCUCAACUAUGACACGCAAAACGCGUGCUCCGUUGAAUGGAGUUUAUCAUG | ≤ -4.2 |
| GGCUCUUCUCGAUCUAACAAAAAAGACAAAUCUGCCACAAAGCUUGAGAGCAUCUUCGGAUGCAGAGGCGGCAGCCUUCGGUGGUGCGAUAGCGCCAACGUUCUCAACUAUGACACGCAAAACGCGUGCUCCGUUGAAUGGAGUUUAUCAUG | -1.46 |
| GGCUCUUCUGGAUCUAACAAAAAAGACAAAUCUGCCACAAAGCUUGAGCGCAUUUUCGGUUGCAGAGGCGGCAGCCUUCGGUGGCGCGAUCGCGCCAACAUUCUCAACUAUGACACGCAAAACGCGUGCUCCGUUUAACGGAGUUUAUCAUG | ≤ -4.2 |
